In all, about 310,000 compounds went through this assay and about 2,200 (0.71%) showed an effect of 50% or more. The effect is printed as a negative number. The list shows a part of the results.
These molecules were tested against human ether-à-go-go-related gene (hERG) potassium channel (human, UniProt Q12809) (assay: primary screen, population patch clamp on CHO cells stably expressing hERG).
Chain of human ether-à-go-go-related gene (hERG) potassium channel (Q12809 whole entry, looked up): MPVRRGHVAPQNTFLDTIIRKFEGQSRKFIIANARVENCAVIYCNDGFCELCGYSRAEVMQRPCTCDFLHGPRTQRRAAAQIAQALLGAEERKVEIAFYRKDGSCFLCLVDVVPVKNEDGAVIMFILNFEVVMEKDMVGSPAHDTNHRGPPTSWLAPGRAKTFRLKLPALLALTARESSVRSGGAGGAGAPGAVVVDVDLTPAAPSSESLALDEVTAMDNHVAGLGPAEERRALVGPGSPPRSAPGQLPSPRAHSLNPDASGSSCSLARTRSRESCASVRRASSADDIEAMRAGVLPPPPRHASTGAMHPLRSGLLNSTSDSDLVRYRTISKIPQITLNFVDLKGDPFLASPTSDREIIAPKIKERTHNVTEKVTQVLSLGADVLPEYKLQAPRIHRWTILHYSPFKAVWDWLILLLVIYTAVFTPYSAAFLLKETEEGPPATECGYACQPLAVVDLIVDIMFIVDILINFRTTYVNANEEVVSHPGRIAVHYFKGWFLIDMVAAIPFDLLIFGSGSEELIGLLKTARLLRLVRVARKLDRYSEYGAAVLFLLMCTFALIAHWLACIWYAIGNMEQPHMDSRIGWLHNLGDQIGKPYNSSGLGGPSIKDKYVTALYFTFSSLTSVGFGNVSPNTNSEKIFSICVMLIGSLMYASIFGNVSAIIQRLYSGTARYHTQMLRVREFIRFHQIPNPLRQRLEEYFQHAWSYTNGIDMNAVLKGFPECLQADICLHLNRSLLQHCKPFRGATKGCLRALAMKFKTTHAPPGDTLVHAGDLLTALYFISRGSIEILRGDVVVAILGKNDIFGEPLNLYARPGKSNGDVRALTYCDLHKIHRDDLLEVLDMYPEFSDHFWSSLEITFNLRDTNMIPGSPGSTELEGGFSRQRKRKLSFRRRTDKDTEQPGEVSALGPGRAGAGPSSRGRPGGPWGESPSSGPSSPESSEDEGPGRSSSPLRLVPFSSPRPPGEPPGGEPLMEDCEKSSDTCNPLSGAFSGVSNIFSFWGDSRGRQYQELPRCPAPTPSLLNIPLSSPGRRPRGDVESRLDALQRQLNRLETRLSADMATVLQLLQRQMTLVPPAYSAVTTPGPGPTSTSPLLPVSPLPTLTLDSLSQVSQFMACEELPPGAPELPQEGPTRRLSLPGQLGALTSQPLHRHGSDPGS
With `CCOc1ccc(Cl)cc1S(=O)(=O)n1cnc2cc(C)c(C)cc21` the “hERG current change (%, negative = inhibition) at 1uM” value was 10.9%. For `CCOc1ccc(OCCC(=O)N(CC)CC(=O)Nc2ccccc2C(F)(F)F)cc1`, the “hERG current change (%, negative = inhibition) at 1uM” value was -7.63%. In the case of `COc1ccccc1C(=O)Nc1ccnn1C1CCN(Cc2ccc3nonc3c2)CC1`, the “hERG current change (%, negative = inhibition) at 1uM” value is reported as -61.8%. With `CC(=O)c1cccc(N(C(=O)c2ccccn2)C(C(=O)NC2CCCCC2)c2ccccc2)c1` (centres unmarked) the “hERG current change (%, negative = inhibition) at 1uM” value was 13%. `COc1ccc(/C(C)=C(\C#N)C(=O)OC(C)C)cc1OC` was tested, and the “hERG current change (%, negative = inhibition) at 1uM” value was 7.26%. In the case of `COCCCNCC(O)C(F)(F)F` (centres unmarked), the “hERG current change (%, negative = inhibition) at 1uM” value is reported as 13.5%. With `C/C(=N\N=C1/NC(=O)C(C)S1)c1ccco1` (centres unmarked) the “hERG current change (%, negative = inhibition) at 1uM” value was 1.89%. `CCC1CCCCN1C(=O)CSc1nc2ncccc2[nH]1` (centres unmarked) was tested, and the “hERG current change (%, negative = inhibition) at 1uM” value was 16.2%. With `CC(C)CC(=O)NC(=S)NNC(=O)c1ccc([N+](=O)[O-])cc1` the “hERG current change (%, negative = inhibition) at 1uM” value was 11.1%. In the case of `Cc1ccc(Cc2nnc(SCC(=O)Nc3ccccc3)n(N)c2=O)cc1`, the “hERG current change (%, negative = inhibition) at 1uM” value is reported as 0.134%. `Cc1cc(N)n2ncc(-c3ccc(Cl)cc3)c2n1` was tested, and the “hERG current change (%, negative = inhibition) at 1uM” value was 0.838%. In the case of `CC(=O)c1ccc(NS(=O)(=O)Cc2ccc(Cl)cc2)cc1`, the “hERG current change (%, negative = inhibition) at 1uM” value is reported as -8.67%. `COc1ccc(NC(=O)CN(C)C(=O)c2ccccc2CCc2ccccc2)cc1` was tested, and the “hERG current change (%, negative = inhibition) at 1uM” value was 13%. In the case of `Cc1ccc2c(CN3CCN(S(=O)(=O)c4ccccc4C(F)(F)F)CC3)cc(=O)oc2c1C`, the “hERG current change (%, negative = inhibition) at 1uM” value is reported as 5.6%. `CCc1ccccc1NC(=O)C1COc2ccccc2O1` (centres unmarked) was tested, and the “hERG current change (%, negative = inhibition) at 1uM” value was 13.3%. For `Cc1ccc(-c2nc(CS(=O)(=O)CC(=O)NC3CCCCCC3)c(C)o2)cc1`, the “hERG current change (%, negative = inhibition) at 1uM” value was 7.24%. In the case of `O=C(CSc1nc(C(F)(F)F)cc(=O)[nH]1)N1CCCCCC1`, the “hERG current change (%, negative = inhibition) at 1uM” value is reported as 5.27%. With `O=C(NCc1cccnc1)c1ccc(COc2ccccc2Cl)o1` the “hERG current change (%, negative = inhibition) at 1uM” value was 8.89%. `COCCCC1CCN(Cc2cn[nH]c2-c2cc(OC)c(OC)c(OC)c2)CC1` was tested, and the “hERG current change (%, negative = inhibition) at 1uM” value was -40.1%. `COc1ccc(NC(=O)/C(C#N)=C/c2ccc(Br)o2)cc1` was tested, and the “hERG current change (%, negative = inhibition) at 1uM” value was -9.37%. `O=C(NNC(=O)c1cccnc1Cl)c1ccc(F)cc1` was tested, and the “hERG current change (%, negative = inhibition) at 1uM” value was 9.53%. `NC(=O)N=Nc1c2[nH]c3ccccc3nc-2c2ccccc12` was tested, and the “hERG current change (%, negative = inhibition) at 1uM” value was 12%. For `O=Cc1c(NCc2ccccc2F)c2ccccc2[nH]c1=O`, the “hERG current change (%, negative = inhibition) at 1uM” value was 11%. With `CCOc1cc(OCC)cc(C(=O)Nc2cccc(C(C)=O)c2)c1` the “hERG current change (%, negative = inhibition) at 1uM” value was 3.27%. In the case of `Cn1c(SCC(=O)OCc2ccccc2)nnc1-c1ccco1`, the “hERG current change (%, negative = inhibition) at 1uM” value is reported as 6.34%. For `CC(C)Oc1ccc(C(=O)Nc2ccc(N(C)C)cc2)cc1`, the “hERG current change (%, negative = inhibition) at 1uM” value was 1.17%. In the case of `COc1ccccc1-c1nnc(SCC(=O)NCc2cccs2)n1N`, the “hERG current change (%, negative = inhibition) at 1uM” value is reported as 7.38%. In the case of `O=C(NCc1ccc2c(c1)OCO2)c1cc(F)c(F)cc1Cl`, the “hERG current change (%, negative = inhibition) at 1uM” value is reported as 6.86%. `COC(=O)C1=C(C(=O)OC)[C@@H]2N(Cc3ccccc3)c3ccccc3[C@@]23C[C@@H](C(=O)OC)N(C(=O)c2ccc(Br)cc2)C3=N1` was tested, and the “hERG current change (%, negative = inhibition) at 1uM” value was 15.6%. In the case of `Cc1ccc(C2NC(=O)Cc3ccccc32)cc1` (centres unmarked), the “hERG current change (%, negative = inhibition) at 1uM” value is reported as 5.35%. In the case of `CC(C(=O)Nc1cc([N+](=O)[O-])ccc1Cl)N1CCN(c2ccccc2)CC1` (centres unmarked), the “hERG current change (%, negative = inhibition) at 1uM” value is reported as -7.6%. With `O=C(NCc1ccccc1Br)c1cccc2c1C(=O)c1ccc(N3CCOCC3)cc1S2(=O)=O` the “hERG current change (%, negative = inhibition) at 1uM” value was 13.9%. For `COc1ccc(CCNC(=O)CSCc2ccc(Cl)cc2)cc1OC`, the “hERG current change (%, negative = inhibition) at 1uM” value was -6.37%. `CC(C)C(=O)N1CCN(c2ccccc2NC(=S)NC(=O)c2ccco2)CC1` was tested, and the “hERG current change (%, negative = inhibition) at 1uM” value was 12.7%. For `CCn1c(=O)cc(SCC(=O)N2CCCCC2)c2ccccc21`, the “hERG current change (%, negative = inhibition) at 1uM” value was 3.68%. With `CCCCc1ccc(NC(=O)CSc2nc(=O)n(CCN(CC)CC)c3c2CCC3)cc1` the “hERG current change (%, negative = inhibition) at 1uM” value was -0.0891%. With `Cc1cc(-c2cn3ccccc3n2)c(C)n1-c1ccccc1` the “hERG current change (%, negative = inhibition) at 1uM” value was 4.91%. In the case of `CCOC(=O)C1(CCCc2ccccc2)CCN(S(C)(=O)=O)CC1`, the “hERG current change (%, negative = inhibition) at 1uM” value is reported as 5.98%. In the case of `CC(Oc1cc(F)ccc1[N+](=O)[O-])C(=O)N(C)CC(=O)Nc1ccccc1C(F)(F)F` (centres unmarked), the “hERG current change (%, negative = inhibition) at 1uM” value is reported as 7.16%. For `CC1(c2ccc3ccccc3c2)NC(=O)N(CC(N)=O)C1=O` (centres unmarked), the “hERG current change (%, negative = inhibition) at 1uM” value was 12.2%. `CCOc1ccc(C(=O)C2CCN(CC(=O)Nc3ccccc3N3CCOCC3)CC2)cc1` was tested, and the “hERG current change (%, negative = inhibition) at 1uM” value was -19.5%. For `CCCn1cc(S(=O)(=O)CC(=O)NC2CCCCC2)c2ccccc21`, the “hERG current change (%, negative = inhibition) at 1uM” value was 5.76%. In the case of `CN(C(=O)CSc1nc(C2CC2)nc2ccccc12)c1nc(-c2ccccc2)cs1`, the “hERG current change (%, negative = inhibition) at 1uM” value is reported as 3.28%. For `CCN(CCO)c1nc(SC)nc2c1sc1nc(-c3ccco3)c3c(c12)CCC3`, the “hERG current change (%, negative = inhibition) at 1uM” value was 9.03%. For `Cc1ccc(NC(=O)c2ccc3c(c2)OCCO3)cc1C`, the “hERG current change (%, negative = inhibition) at 1uM” value was 12.3%. For `Cc1cc(C)nc(N2CCCC(C(=O)Nc3nnc(C(C)(C)C)s3)C2)n1` (centres unmarked), the “hERG current change (%, negative = inhibition) at 1uM” value was 12.6%. `CCOC(=O)CCP(=O)(O)C(O)(c1ccccc1)c1ccccc1` was tested, and the “hERG current change (%, negative = inhibition) at 1uM” value was 8.79%. `Cc1nc(N2CCN(C(=O)c3ccco3)CC2)nc2c1C(=O)CCC2` was tested, and the “hERG current change (%, negative = inhibition) at 1uM” value was 18%. With `CC1CCCN(C(=O)CCNS(=O)(=O)c2ccc(Br)cc2)C1` (centres unmarked) the “hERG current change (%, negative = inhibition) at 1uM” value was -2.54%. With `CC1CCN(CCCN2C(=O)C3C(C(=O)Nc4ccc(Cl)cc4)C4C=CC3(O4)C2C(=O)NC2CCCCC2)CC1` (centres unmarked) the “hERG current change (%, negative = inhibition) at 1uM” value was 8.73%. For `O=C(NCc1nc2ccccc2[nH]1)C1=C[C@H](c2ccc(C(F)(F)F)cc2)C[C@H](OCc2ccc(CO)cc2)O1`, the “hERG current change (%, negative = inhibition) at 1uM” value was 8.44%. For `CCOC(=O)Cc1csc(NC(=O)CSc2nnc(-c3ccc(NS(=O)(=O)CC)cc3)o2)n1`, the “hERG current change (%, negative = inhibition) at 1uM” value was 3.36%. For `O=C(NNc1nc(-c2ccccc2)cs1)c1cccs1`, the “hERG current change (%, negative = inhibition) at 1uM” value was 14.9%. In the case of `O=C(N/C(=N\O)c1ccccc1)Nc1ccc(Cl)cc1`, the “hERG current change (%, negative = inhibition) at 1uM” value is reported as -8.86%. In the case of `CC1=C(C(=O)N2CCOCC2)C(c2ccc(O)cc2)NC(=S)N1` (centres unmarked), the “hERG current change (%, negative = inhibition) at 1uM” value is reported as 6.33%. `CCOC(=O)C1(CCOc2ccccc2)CCN(Cc2ccc(C#CCCO)cc2)CC1` was tested, and the “hERG current change (%, negative = inhibition) at 1uM” value was 0.161%.
